This is one part of the list. Values were computed here from the reads of four pooled replicates and scatter widely.

The target in this test is T1, Pho4 (S. cerevisiae) (UniProt P07270).
T1 sequence: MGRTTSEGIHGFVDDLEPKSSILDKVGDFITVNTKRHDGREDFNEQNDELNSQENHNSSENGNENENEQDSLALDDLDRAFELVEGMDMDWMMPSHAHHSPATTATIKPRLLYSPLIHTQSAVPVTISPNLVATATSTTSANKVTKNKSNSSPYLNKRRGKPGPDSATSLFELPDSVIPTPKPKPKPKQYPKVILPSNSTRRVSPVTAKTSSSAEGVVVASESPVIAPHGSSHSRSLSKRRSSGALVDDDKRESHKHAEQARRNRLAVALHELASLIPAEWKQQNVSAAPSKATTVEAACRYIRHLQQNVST
Put plainly: relative binding free energy (BET-seq); higher = weaker binding. The note with it: reference: library average.
TATTTCACGTGATCGA: the “relative binding free energy” value was 0.26 kcal/mol.

Regarding AATTGCACGTGGGAAG, the “relative binding free energy” value is 0.05 kcal/mol.

Turning to CGGGGCACGTGCTGTG, the “relative binding free energy” value is -0.3 kcal/mol.

For TTCAGCACGTGACGGT, the “relative binding free energy” value stood at 0.03 kcal/mol.

For the sequence TTTGACACGTGAAGCG, the “relative binding free energy” value came out at 0.38 kcal/mol.

With TGTCCCACGTGTTTGG, the “relative binding free energy” value was -0.07 kcal/mol.

For the sequence AGGGCCACGTGTTGTA, the “relative binding free energy” value was -0.07 kcal/mol.

On to AGTTGCACGTGTTATC, for which the “relative binding free energy” value is 0.04 kcal/mol.

TTTTGCACGTGCGTTA: the “relative binding free energy” value was -0.06 kcal/mol.

With TTAATCACGTGCTGTA, the “relative binding free energy” value turned out to be 0.07 kcal/mol.

TTGTCCACGTGGTGAG: the “relative binding free energy” value stood at 0 kcal/mol.

Turning to AAATGCACGTGGAGTC, the “relative binding free energy” value came out at 0.01 kcal/mol.

Consider CCGGGCACGTGCGTGT, for which the “relative binding free energy” value was -0.24 kcal/mol.

Turning to AGTTTCACGTGCTTAT, the “relative binding free energy” value is 0.09 kcal/mol.

Regarding TTAATCACGTGCTGTT, the “relative binding free energy” value was -0.05 kcal/mol.

In the case of GTAGTCACGTGTCTGG, the “relative binding free energy” value worked out at 0.28 kcal/mol.

For the sequence TGGGTCACGTGGATGG, the “relative binding free energy” value was 0.15 kcal/mol.

Take TCTAACACGTGTTTGT: the “relative binding free energy” value is -0.1 kcal/mol.

Turning to TTTCTCACGTGTATTG, the “relative binding free energy” value was 0.25 kcal/mol.

Consider GATTCCACGTGTGGGA, for which the “relative binding free energy” value came to 0.23 kcal/mol.

As for TTGAGCACGTGTTAAA, the “relative binding free energy” value amounted to 0.01 kcal/mol.

Consider AACGTCACGTGGGTGA, for which the “relative binding free energy” value was -0.01 kcal/mol.

In the case of TAGTGCACGTGGGAGT, the “relative binding free energy” value is -0.15 kcal/mol.

Regarding AAAGGCACGTGATTGG, the “relative binding free energy” value turned out to be 0.01 kcal/mol.

Consider TGCGTCACGTGCGGTG, for which the “relative binding free energy” value worked out at 0 kcal/mol.

In the case of TGCGGCACGTGTTACT, the “relative binding free energy” value was -0.07 kcal/mol.

As to CGGTCCACGTGGGTGT, the “relative binding free energy” value was -0.18 kcal/mol.

For TAAGTCACGTGTACGG, the “relative binding free energy” value was 0.13 kcal/mol.

Consider CTGATCACGTGTGGCT, for which the “relative binding free energy” value amounted to 0.17 kcal/mol.

Take AGTTACACGTGTGAAG: the “relative binding free energy” value is 0.06 kcal/mol.

For the sequence TAATGCACGTGTCTAT, the “relative binding free energy” value turned out to be 0.07 kcal/mol.

Regarding GTCCTCACGTGTTGTG, the “relative binding free energy” value amounted to 0.27 kcal/mol.

For TTAGCCACGTGAAGTT, the “relative binding free energy” value was 0.28 kcal/mol.

AAGTTCACGTGGGTCT: the “relative binding free energy” value came out at 0.15 kcal/mol.

As to GGGTCCACGTGATGTG, the “relative binding free energy” value came to 0.13 kcal/mol.

For GAGTGCACGTGGAGTG, the “relative binding free energy” value is 0.04 kcal/mol.

In the case of TTTTGCACGTGCGAGC, the “relative binding free energy” value was determined as 0.01 kcal/mol.

As for GGTTTCACGTGCAGGT, the “relative binding free energy” value worked out at 0.19 kcal/mol.

TGAGTCACGTGTAATA: the “relative binding free energy” value was determined as 0.22 kcal/mol.

For the sequence AGCGTCACGTGTATGG, the “relative binding free energy” value came out at 0.15 kcal/mol.

For the sequence GACTTCACGTGTTGGG, the “relative binding free energy” value was determined as 0.32 kcal/mol.

As to AAGTCCACGTGTATGG, the “relative binding free energy” value turned out to be 0.1 kcal/mol.

TTCTTCACGTGGAGAT: the “relative binding free energy” value was found to be 0.24 kcal/mol.

On to CAGTTCACGTGTGTCG, for which the “relative binding free energy” value was found to be 0.33 kcal/mol.

Take GGTATCACGTGAGGTC: the “relative binding free energy” value was determined as 0.32 kcal/mol.

In the case of TGTGGCACGTGGAAAC, the “relative binding free energy” value was -0.01 kcal/mol.

In the case of GGGGGCACGTGTATTA, the “relative binding free energy” value was -0.01 kcal/mol.

With ATGGTCACGTGTATTC, the “relative binding free energy” value is 0.04 kcal/mol.

Regarding GGTGGCACGTGTGGGT, the “relative binding free energy” value was 0.03 kcal/mol.

GTAGGCACGTGCATGT: the “relative binding free energy” value is -0.14 kcal/mol.

On to GATTACACGTGTTGTT, for which the “relative binding free energy” value worked out at 0.28 kcal/mol.

Turning to TGAGTCACGTGGAGCT, the “relative binding free energy” value was 0.15 kcal/mol.

In the case of AGTGACACGTGGCGAG, the “relative binding free energy” value was found to be 0.04 kcal/mol.

Take TTCCTCACGTGGTTGT: the “relative binding free energy” value is 0.1 kcal/mol.

With AGTGTCACGTGGCAAT, the “relative binding free energy” value came out at 0.06 kcal/mol.

Take AGATACACGTGGGGGT: the “relative binding free energy” value is -0.23 kcal/mol.

As to TGGAACACGTGGTAGT, the “relative binding free energy” value is -0.01 kcal/mol.

With CTAGTCACGTGTGTCT, the “relative binding free energy” value turned out to be 0.13 kcal/mol.

Regarding GGTTTCACGTGGGTAG, the “relative binding free energy” value worked out at 0.21 kcal/mol.

Turning to TGTAACACGTGTGGAC, the “relative binding free energy” value is 0.06 kcal/mol.

TGATACACGTGTTAGT: the “relative binding free energy” value is 0.08 kcal/mol.

For GGACTCACGTGTGTGT, the “relative binding free energy” value was determined as 0.24 kcal/mol.

Consider GGAGTCACGTGAGTTT, for which the “relative binding free energy” value came to 0.42 kcal/mol.

As to AAAGTCACGTGTAATG, the “relative binding free energy” value worked out at 0.15 kcal/mol.

Consider GATGGCACGTGAGTGT, for which the “relative binding free energy” value worked out at 0.19 kcal/mol.

TCTGGCACGTGGGATA: the “relative binding free energy” value was -0.12 kcal/mol.

In the case of AATATCACGTGTTGGA, the “relative binding free energy” value was 0.08 kcal/mol.

As for GCCGTCACGTGGGCGG, the “relative binding free energy” value is -0.02 kcal/mol.

Regarding GGTGTCACGTGCGCTT, the “relative binding free energy” value is -0.02 kcal/mol.

With AACATCACGTGTTGGT, the “relative binding free energy” value turned out to be 0.14 kcal/mol.

For the sequence ATGTACACGTGTATAG, the “relative binding free energy” value was 0 kcal/mol.

As for TGATACACGTGTTTAA, the “relative binding free energy” value was -0.06 kcal/mol.

With TTATTCACGTGATAAA, the “relative binding free energy” value is 0.29 kcal/mol.

For the sequence TGCTACACGTGGGGAT, the “relative binding free energy” value was -0.13 kcal/mol.

Turning to TGTTGCACGTGGTTTG, the “relative binding free energy” value was 0.01 kcal/mol.

GTGGCCACGTGGTAGA: the “relative binding free energy” value was -0.14 kcal/mol.

Turning to TTTCTCACGTGGAGGG, the “relative binding free energy” value turned out to be 0.14 kcal/mol.

For TGGTACACGTGCCGGG, the “relative binding free energy” value is -0.02 kcal/mol.

For GGTGTCACGTGCTGGC, the “relative binding free energy” value stood at 0.22 kcal/mol.

Consider GTAGACACGTGTAGTG, for which the “relative binding free energy” value was 0.05 kcal/mol.

Turning to ACGGGCACGTGAGGGG, the “relative binding free energy” value is 0.06 kcal/mol.

On to TGTGTCACGTGCGGTG, for which the “relative binding free energy” value was determined as 0.11 kcal/mol.

In the case of TCCTGCACGTGGTGTG, the “relative binding free energy” value was -0.17 kcal/mol.

For AAATTCACGTGGGAGT, the “relative binding free energy” value was determined as 0.32 kcal/mol.

Take GGCGGCACGTGGGGAG: the “relative binding free energy” value is -0.25 kcal/mol.

On to CGCGTCACGTGGTGCG, for which the “relative binding free energy” value was -0.07 kcal/mol.

With AGAGGCACGTGGCTGA, the “relative binding free energy” value is -0.1 kcal/mol.

Consider GATCTCACGTGTGAGT, for which the “relative binding free energy” value came out at 0.38 kcal/mol.

In the case of GAGGACACGTGATGGC, the “relative binding free energy” value was determined as 0.12 kcal/mol.

Take AGGGCCACGTGATGGT: the “relative binding free energy” value was -0.04 kcal/mol.

Regarding GGGTTCACGTGGTGTA, the “relative binding free energy” value stood at 0.32 kcal/mol.

TTGTTCACGTGTCAGA: the “relative binding free energy” value is 0.3 kcal/mol.

For the sequence ATTGACACGTGTATAA, the “relative binding free energy” value was determined as 0.07 kcal/mol.

On to TGTAGCACGTGTATTA, for which the “relative binding free energy” value is -0.01 kcal/mol.

For the sequence ATAGTCACGTGTAGAT, the “relative binding free energy” value worked out at 0.12 kcal/mol.

With TTGGGCACGTGAGCAG, the “relative binding free energy” value came to 0.03 kcal/mol.

On to ATTGGCACGTGCGTAG, for which the “relative binding free energy” value was -0.08 kcal/mol.

On to AGAGGCACGTGTAAGT, for which the “relative binding free energy” value is -0.03 kcal/mol.

For the sequence GGAGGCACGTGTCTGG, the “relative binding free energy” value is -0.15 kcal/mol.

GTTTCCACGTGCTGGG: the “relative binding free energy” value was 0.07 kcal/mol.

Take ATGCTCACGTGGAGGG: the “relative binding free energy” value amounted to 0.12 kcal/mol.

Turning to CTTGTCACGTGAATAG, the “relative binding free energy” value amounted to 0.28 kcal/mol.

Regarding GAGTGCACGTGTGTTA, the “relative binding free energy” value is 0.01 kcal/mol.

With CGCCGCACGTGTGGTG, the “relative binding free energy” value came to 0 kcal/mol.

With TGTTGCACGTGTGCAT, the “relative binding free energy” value was -0.02 kcal/mol.

As to GTGAACACGTGTCTTG, the “relative binding free energy” value is 0.09 kcal/mol.

As to GAGGGCACGTGTTCGT, the “relative binding free energy” value was -0.02 kcal/mol.

In the case of TGAAACACGTGGTTGT, the “relative binding free energy” value was determined as 0.03 kcal/mol.

Regarding TGTCGCACGTGGATGG, the “relative binding free energy” value was 0 kcal/mol.

Turning to CATTTCACGTGAGGTG, the “relative binding free energy” value turned out to be 0.29 kcal/mol.

As to GTCGGCACGTGTGGAA, the “relative binding free energy” value is -0.1 kcal/mol.

For AATAACACGTGGGCTT, the “relative binding free energy” value is -0.03 kcal/mol.

As to TTGAGCACGTGTACGG, the “relative binding free energy” value was determined as 0.02 kcal/mol.

For the sequence AGTCACACGTGTGGAG, the “relative binding free energy” value was 0.07 kcal/mol.

On to TTCATCACGTGTTAGT, for which the “relative binding free energy” value was found to be 0.12 kcal/mol.

The values are drawn from the BET-seq Pho4 binding data (Le et al. 2018).
